Measured values published in PMC8876511, “Two out of Three Musketeers Fight against Cancer: Synthesis, Physicochemical, and Biological Properties of Phosphino Cu^I, Ru^II, Ir^III Complexes” (Pharmaceuticals, 2022).

Tested on: pBR322 plasmid
Conditions: pBR322, 50 μM complex + 50 μM H2O2
Procedure: The ability of studied compounds to induce single- and/or double-strand damage to DNA was tested using gel electrophoresis of pBR322 plasmid, which naturally occurs as a covalently closed superhelical form (form I). The process of DNA degradation can lead to the formation of both the relaxed/nicked form (form II) and linear form (form III). The degree of DNA degradation was determined in a wide range of concentrations (from 2 to 1000 µM). […] Due to the lack of DNA degradation, tested compounds can probably cause fewer side effects than cisplatin. This probably makes them a safe choice as potential cancer therapeutics.
Hydrogen peroxide (H2O2) is a source of hydroxyl radicals and a strong DNA oxidant in the presence of transition metal ions and their complexes. Gel electrophoresis can determine the ability of reactive oxygen species (ROS) to cause damage to plasmid DNA. In order to identify a given type of ROS formed by the complexes in the presence of H2O2, gel electrophoresis with the specific quenchers such as: DMSO (effective ^●OH scavenger) and NaN3 (effective ^1O2 scavenger) was performed. […] Partial protection against the formation of the nicked form of DNA was noticed after adding DMSO or NaN3 to the studied complexes in the presence of H2O2 (Supplementary Material, Figure S27.). This means that the tested ruthenium and iridium complexes are able to form moderate amounts of the hydroxyl radical and singlet oxygen.
The ability of 1, 1a, 1b, 2, 2a, 2b, and starting ligands to induce plasmid DNA damage was tested with the pBR322 plasmid (C = 0.5 mg/mL). All compounds were dissolved in DMF with/without hydrogen peroxide (H2O2, C = 50 μM), dimethyl sulfoxide (DMSO, C = 1.4 mM), or sodium azide (NaN3, C = 40 mM). After incubation for 1 h at 37 °C, reaction mixtures (16 μL) were mixed with 3 μL of loading buffer (bromophenol blue in 30% glycerol) and loaded on 1% agarose gels, containing EB, in TBE buffer (90 Mm Tris–borate, 20 mM EDTA, pH = 8.0). Gel electrophoresis was performed at a constant voltage of 120 V for 120 min. […]

CCN(CC)C[P+](c1ccccc1)(c1ccccc1)[Ir-3]([Cl])([Cl])[C]1(C)C(C)=C(C)C(C)=C1C [1a, Ir(η^5-Cp*)Cl2Ph2PCH2N(CH2CH3)2]
DNA strand breaks in the presence of H2O2: capable of causing DNA single-strand breaks and without causing double-strand breaks

Ru(η^6-p-cymene)Cl2Ph2PCH2N(CH2CH2CH2CH3)2 [2b]
DNA strand breaks in the presence of H2O2: capable of causing DNA single-strand breaks and without causing double-strand breaks

Ru(η^6-p-cymene)Cl2Ph2PCH2N(CH2CH3)2 [1b]
DNA strand breaks in the presence of H2O2: capable of causing DNA single-strand breaks and without causing double-strand breaks
